From the supplement of paper PMC8512760 come the findings set out here.

Structures can show the parent of a compound that is named as a salt. Some of the results follow. Most values come without repeats; read them as rough.
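Also: stably firefly luciferase-GFP labeled cells in 96-well plates, viability read as luciferase photon flux after d-luciferin addition, treated wells normalized to vehicle wells, single-dose high-throughput screen.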

The test system of one assay is MDA-468. Nature of the assay: cell viability relative to vehicle (% of vehicle); basal-like triple-negative breast cancer lines; higher = less cytotoxic. To be noted: 10 µM; 72 h.
Molecule `CCC1=C[C@H]2CN3CCc4c([nH]c5ccccc45)[C@@](C(=O)OC)(C2)[C@@H]13` [Catharanthine] had a cell viability of 121.
On the same count and under the same terms, as for `CCCN1CC(CSC)CC2c3cccc4[nH]cc(c34)CC21.CS(=O)(=O)O` (stereo not drawn) [Pergolide mesylate], the figure is 65.9.
On to `Cn1c(COP(=O)(NCCBr)NCCBr)cnc1[N+](=O)[O-]`, for which the cell viability worked out at 95.6.
On the same count and under the same terms, as for `CC(C)NCC(O)c1ccccc1Cl.Cl` (stereo not drawn) [Clorprenaline HCL], the figure is 143; as for `CCCCCCCCCCCCCCCC[N+](C)(C)C.[Br-]` [Cetrimonium Bromide (CTAB)], 30.7.
`CC(C)N(CCNC(=O)CN1CCCC1=O)C(C)C` [Pramiracetam]: the cell viability turned out to be 102.
Same read-out and setting: the same measure for `OC(c1ccccc1)(c1ccccc1)C1CCNCC1` [Azacyclonol]: 104; for `Cc1c(N)nc(C(CC(N)=O)NCC(N)C(N)=O)nc1C(=O)NC(C(=O)NC(C)C(O)C(C)C(=O)NC(C(=O)NCCc1nc(-c2nc(C(=O)NCCC[S+](C)C)cs2)cs1)C(C)O)C(O[C@@H]1O[C@@H](CO)[C@@H](O)[C@H](O)[C@@H]1O[C@H]1O[C@H](CO)[C@@H](O)[C@H](OC(N)=O)[C@@H]1O)c1cnc[nH]1` (stereo partly drawn) [Bleomycin Sulfate]: 65.1; for `O.O=P1(N(CCCl)CCCl)NCCCO1` (stereo not drawn) [Cyclophosphamide monohydrate]: 97.5.
The same measure, in the same setting: as for `CCCC1CC(=O)N(C(CC)C(N)=O)C1` (stereo not drawn) [Brivaracetam], the figure is 106.
The same measure, in the same setting: as for `C=CCN1CCC23c4c5ccc(O)c4OC2C(=O)CCC3(O)C1C5.Cl` (stereo not drawn) [Naloxone HCl], the figure is 88.4.
In turn, `CN1C(=O)CCS(=O)(=O)C1c1ccc(Cl)cc1` (stereo not drawn) [Chlormezanone] came in with a cell viability of 112.
Same read-out and setting: as for `O=C(OC1C[N+]2(CCCOc3ccccc3)CCC1CC2)C(O)(c1cccs1)c1cccs1.[Br-]` (stereo not drawn) [Aclidinium Bromide], the figure is 97.3; as for `NCCC(O)(P(=O)([O-])O)P(=O)([O-])O.[Na+].[Na+]` [Pamidronate Disodium], 75.3.
The same measure, in the same setting: as for `COc1cc2c(cc1OC)C13CCN4CC5=CCOC6CC(=O)N2C1C6C5CC43` (stereo not drawn) [Brucine], the figure is 148; as for `Cc1ccc(-n2nccn2)c(C(=O)N2CCN(c3nc4cc(Cl)ccc4o3)CCC2C)c1` (stereo not drawn), 96.4.
Still for that read-out and setting: the same measure for `Br.COC(=O)C1=CCCN(C)C1` [Arecoline hydrobromide]: 114; for `CCOC(=O)c1cncn1C(C)c1ccccc1.Cl` (stereo not drawn) [Etomidate hydrochloride]: 136.
`CCNCC.O=S(=O)(O)c1cc(O)ccc1O` [Ethamsylate] yielded a cell viability of 107.
On the same count and under the same terms, as for `O=P1(NCCCl)OCCCN1CCCl` (stereo not drawn) [Ifosfamide], the figure is 82.2; as for `C#CC1(O)C=CC2C3CCC4=CC(=O)CCC4C3CCC21CC` (stereo not drawn) [Gestodene], 104.
The same measure, in the same setting: the same measure for `Cl.NCCc1c[nH]c2ccc(O)cc12` [Serotonin HCl]: 121.
The same measure, in the same setting: the same measure for `CC12CCC3C(CC=C4CC(O)CCC43C)C1CCC2=O` (stereo not drawn) [Dehydroepiandrosterone (DHEA)]: 114; for `CCOC(=O)c1cncn1C(C)c1ccccc1` (stereo not drawn) [Etomidate]: 89.6; for `CC(=O)Nc1cc([As](=O)(O)O)ccc1O` [Arsonic acid]: 98.7.
The molecule `CCC1(c2cccc(O)c2)CCCCN(C)C1.Cl` (stereo not drawn) [Meptazinol HCl] registered a cell viability of 97.5.
On the same count and under the same terms, as for `NCC1(CC(=O)O)CCCCC1` [Gabapentin], the figure is 89.6.
Same read-out and setting: as for `C[N+]1(C)CCCC(OC(=O)C(O)(c2ccccc2)c2ccccc2)C1.[Br-]` (stereo not drawn) [Mepenzolate Bromide], the figure is 115; as for `CCN(C)C(=O)Oc1cccc(C(C)N(C)C)c1` (stereo not drawn) [Rivastigmine], 84.9; as for `C[C@]12CC[C@H]3[C@@H](CC[C@@]45O[C@@H]4C(O)=C(C#N)C[C@]35C)[C@@H]1CC[C@@H]2O` [Trilostane], 111.
The same measure, in the same setting: as for `NC(=O)CN1CC(O)CC1=O` (stereo not drawn) [Oxiracetam], the figure is 104.
In turn, `CN1[C@@H]2C[C@@H](O)C[C@H]1[C@@H]1O[C@@H]12` [Scopine] displayed a cell viability of 124.
The same measure, in the same setting: the same measure for `N/C(N)=N\N.Cl` [Aminoguanidine hydrochloride]: 98.5; for `C[C@]12COC(=O)C[C@@H]1CC[C@@H]1[C@@H]2CC[C@@]2(C)[C@H]1CC[C@]2(C)O` [Oxandrolone]: 116.

A further assay relates to SUM-149. The assay is described as above. To be noted: 10 µM; 72 h.
`CCC1=C[C@H]2CN3CCc4c([nH]c5ccccc45)[C@@](C(=O)OC)(C2)[C@@H]13` [Catharanthine] displayed a cell viability of 103.
The molecule `CCCN1CC(CSC)CC2c3cccc4[nH]cc(c34)CC21.CS(=O)(=O)O` (stereo not drawn) [Pergolide mesylate] returned a cell viability of 111.
The same measure, in the same setting: the same measure for `Cn1c(COP(=O)(NCCBr)NCCBr)cnc1[N+](=O)[O-]`: 78.6.
The same measure, in the same setting: as for `CC(C)NCC(O)c1ccccc1Cl.Cl` (stereo not drawn) [Clorprenaline HCL], the figure is 94.6; as for `CCCCCCCCCCCCCCCC[N+](C)(C)C.[Br-]` [Cetrimonium Bromide (CTAB)], 20.
Same read-out and setting: as for `CC(C)N(CCNC(=O)CN1CCCC1=O)C(C)C` [Pramiracetam], the figure is 117.
`OC(c1ccccc1)(c1ccccc1)C1CCNCC1` [Azacyclonol]: the cell viability was found to be 123.
Still for that read-out and setting: as for `Cc1c(N)nc(C(CC(N)=O)NCC(N)C(N)=O)nc1C(=O)NC(C(=O)NC(C)C(O)C(C)C(=O)NC(C(=O)NCCc1nc(-c2nc(C(=O)NCCC[S+](C)C)cs2)cs1)C(C)O)C(O[C@@H]1O[C@@H](CO)[C@@H](O)[C@H](O)[C@@H]1O[C@H]1O[C@H](CO)[C@@H](O)[C@H](OC(N)=O)[C@@H]1O)c1cnc[nH]1` (stereo partly drawn) [Bleomycin Sulfate], the figure is 72.2.
The same measure, in the same setting: the same measure for `O.O=P1(N(CCCl)CCCl)NCCCO1` (stereo not drawn) [Cyclophosphamide monohydrate]: 118; for `CCCC1CC(=O)N(C(CC)C(N)=O)C1` (stereo not drawn) [Brivaracetam]: 101.
`C=CCN1CCC23c4c5ccc(O)c4OC2C(=O)CCC3(O)C1C5.Cl` (stereo not drawn) [Naloxone HCl]: the cell viability turned out to be 111.
Consider `CN1C(=O)CCS(=O)(=O)C1c1ccc(Cl)cc1` (stereo not drawn) [Chlormezanone], for which the cell viability stood at 129.
Still for that read-out and setting: the same measure for `O=C(OC1C[N+]2(CCCOc3ccccc3)CCC1CC2)C(O)(c1cccs1)c1cccs1.[Br-]` (stereo not drawn) [Aclidinium Bromide]: 119; for `NCCC(O)(P(=O)([O-])O)P(=O)([O-])O.[Na+].[Na+]` [Pamidronate Disodium]: 78.4.
`COc1cc2c(cc1OC)C13CCN4CC5=CCOC6CC(=O)N2C1C6C5CC43` (stereo not drawn) [Brucine]: the cell viability worked out at 141.
The same measure, in the same setting: as for `Cc1ccc(-n2nccn2)c(C(=O)N2CCN(c3nc4cc(Cl)ccc4o3)CCC2C)c1` (stereo not drawn), the figure is 104.
The same measure, in the same setting: the same measure for `Br.COC(=O)C1=CCCN(C)C1` [Arecoline hydrobromide]: 104.
Same read-out and setting: as for `CCOC(=O)c1cncn1C(C)c1ccccc1.Cl` (stereo not drawn) [Etomidate hydrochloride], the figure is 104; as for `CCNCC.O=S(=O)(O)c1cc(O)ccc1O` [Ethamsylate], 102.
`O=P1(NCCCl)OCCCN1CCCl` (stereo not drawn) [Ifosfamide] displayed a cell viability of 103.
Same read-out and setting: as for `C#CC1(O)C=CC2C3CCC4=CC(=O)CCC4C3CCC21CC` (stereo not drawn) [Gestodene], the figure is 103; as for `Cl.NCCc1c[nH]c2ccc(O)cc12` [Serotonin HCl], 101.
The same measure, in the same setting: as for `CC12CCC3C(CC=C4CC(O)CCC43C)C1CCC2=O` (stereo not drawn) [Dehydroepiandrosterone (DHEA)], the figure is 129; as for `CCOC(=O)c1cncn1C(C)c1ccccc1` (stereo not drawn) [Etomidate], 117.
The same measure, in the same setting: as for `CC(=O)Nc1cc([As](=O)(O)O)ccc1O` [Arsonic acid], the figure is 105.
In turn, `CCC1(c2cccc(O)c2)CCCCN(C)C1.Cl` (stereo not drawn) [Meptazinol HCl] gave a cell viability of 94.7.
Still for that read-out and setting: as for `NCC1(CC(=O)O)CCCCC1` [Gabapentin], the figure is 89.4; as for `C[N+]1(C)CCCC(OC(=O)C(O)(c2ccccc2)c2ccccc2)C1.[Br-]` (stereo not drawn) [Mepenzolate Bromide], 109.
Same read-out and setting: the same measure for `CCN(C)C(=O)Oc1cccc(C(C)N(C)C)c1` (stereo not drawn) [Rivastigmine]: 117; for `C[C@]12CC[C@H]3[C@@H](CC[C@@]45O[C@@H]4C(O)=C(C#N)C[C@]35C)[C@@H]1CC[C@@H]2O` [Trilostane]: 103.
Same read-out and setting: as for `NC(=O)CN1CC(O)CC1=O` (stereo not drawn) [Oxiracetam], the figure is 109; as for `CN1[C@@H]2C[C@@H](O)C[C@H]1[C@@H]1O[C@@H]12` [Scopine], 140.
Take `N/C(N)=N\N.Cl` [Aminoguanidine hydrochloride]: the cell viability came to 88.7.
Same read-out and setting: as for `C[C@]12COC(=O)C[C@@H]1CC[C@@H]1[C@@H]2CC[C@@]2(C)[C@H]1CC[C@]2(C)O` [Oxandrolone], the figure is 105.
